Source: PubChem BioAssay AID624417 (National Center for Advancing Translational Sciences (NCATS), 2012)
Hit rate of the full screen: of about 410,000 compounds, about 6,400 (1.6%) were called active. Inconclusive means that the source gave no clear call. Such entries were picked first, then a sample of the others. Calls come from the whole dose curve; as a rule, active = well fitted inhibition curve with a large enough effect; inconclusive = small, poorly fitted or top-dose-only effect; inactive = no such curve, though single readings can be large or run the other way. No potency is given beside an inconclusive call; the fits are too rough.

Biological target: Glucagon-like peptide 1 receptor (Homo sapiens) (UniProt P43220)
Test: qHTS of GLP-1 Receptor Inverse Agonists (Inhibition Mode); note: nearly all actives have a fitted effect of over 55% in size
Conditions: HEK293 GLP-1R CRE-luciferase, luminescence, 24 h, GLP-1R form is constitutively active; activity change, negative = inhibition: at 38.3 µM (top of the series) unless noted
Outline: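 HEK293 cells stably co-expressing a cAMP-responsive luciferase reporter and constitutively active GLP-1R were seeded, incubated 12 h, then exposed to compounds for 24 h at 37 C. Luminescence was read 12 min after detection reagent; inverse agonists lower signal.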
% is set by controls: 0 for no effect and ±100 for the full control effect; potency is the fitted concentration of half-maximal effect; tags give direction and shape of the fitted curve.

Chain of UniProt P43220 (P43220 whole entry, looked up): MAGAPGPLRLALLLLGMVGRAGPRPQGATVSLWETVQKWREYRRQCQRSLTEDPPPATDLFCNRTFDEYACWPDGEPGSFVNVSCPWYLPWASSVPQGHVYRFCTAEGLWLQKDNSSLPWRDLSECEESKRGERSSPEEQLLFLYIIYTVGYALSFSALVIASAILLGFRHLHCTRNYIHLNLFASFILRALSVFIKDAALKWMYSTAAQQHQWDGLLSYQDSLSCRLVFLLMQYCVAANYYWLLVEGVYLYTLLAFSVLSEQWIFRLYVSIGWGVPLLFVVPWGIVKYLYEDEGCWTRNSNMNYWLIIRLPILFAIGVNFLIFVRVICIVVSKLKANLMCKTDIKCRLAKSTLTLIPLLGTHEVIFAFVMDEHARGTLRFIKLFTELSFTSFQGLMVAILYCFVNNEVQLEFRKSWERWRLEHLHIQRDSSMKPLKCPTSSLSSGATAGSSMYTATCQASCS

Row | Compound | Potency | activity change, negative = inhibition
1 | CC(C)C(c1nnnn1C(C)(C)C)N1CCN(c2cccc(Cl)c2)CC1 (configuration not stated) | inconclusive [inhibitor, single point] | –
2 | COc1cccc(N2C(=O)C3C(C2=O)C2C=CC3C23CC3)c1 (configuration not stated) | inconclusive [inhibitor, single point] | –
3 | CC(C)[C@H](NS(=O)(=O)c1cccc(Cl)c1)C(=O)OCC(=O)N1CCN(c2ccccc2)CC1 | inconclusive [inhibitor, partial curve, poor fit] | –
4 | COc1ccc(-c2noc(CCC(=O)Nc3cc(Cl)c(OC)cc3OC)n2)cc1 | inconclusive [inhibitor, partial curve, poor fit] | –
5 | Cc1cccc(NC(c2ccc(O)cc2)c2ccc3ccc(C)nc3c2O)n1 (configuration not stated) | – | inactive: -2.31%
6 | Cc1ccc2c(c1)c1c3n2CCN(C(=O)CCl)C3CCC1 (configuration not stated) | inconclusive [inhibitor, full curve, poor fit] | –
7 | O=C(CN1CCN(C(=O)c2ccco2)CC1)Nc1ccccc1-c1ccccc1 | inconclusive [inhibitor, partial curve] | –
8 | O=C1C2C3C=CC(C4CC34)C2C(=O)N1/N=C/c1ccc(-c2cccc([N+](=O)[O-])c2)o1 (configuration not stated) | inconclusive [inhibitor, partial curve, poor fit] | –
9 | NCCCC(=O)N1c2ccccc2Sc2ccccc21 | inconclusive [inhibitor, single point] | –
10 | CCN(CC)c1nc(C(F)(F)F)nc2c1nnn2Cc1ccccc1 | inconclusive [inhibitor, single point] | –
11 | Cn1c(SCC(=O)NCc2ccc3c(c2)OCO3)nnc1C1COc2ccccc2O1 (configuration not stated) | inconclusive [inhibitor, partial curve, poor fit] | –
12 | O=C(N/N=C/c1ccncc1)c1ccccc1 | – | inactive: 32.9%
13 | Cc1ccc(C(=O)c2cc([N+](=O)[O-])ccc2N2CCCCC2)cc1 | inconclusive [inhibitor, full curve, poor fit] | –
14 | COc1ccc(-c2noc(CNC(=O)Nc3ccc(F)cc3)n2)cc1 | inconclusive [inhibitor, partial curve] | –
15 | COc1cccc(NC(=O)[C@@H]2CCCN2C(=O)C2CCN(S(=O)(=O)c3ccc(C)cc3)CC2)c1 | inconclusive [inhibitor, full curve] | –
16 | Cn1c(=O)c2c(nc(Oc3ccccc3)n2Cc2c(Cl)cccc2Cl)n(C)c1=O | – | inactive: 5.94%
17 | Cc1ccc(-c2nn(-c3cccc(F)c3)cc2CNCCc2ccncc2)o1 | inconclusive [inhibitor, single point] | –
